# Laboratory results reported in PubChem BioAssay AID686992 (Broad Institute, 2013).
# Screen size: about 260,000 compounds; about 960 (0.37%) were called active. The inconclusive results got no clear call from the source; some entries with a clear call stand among them for comparison.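 How the source made its calls: active means mean E-selectin-positive cell signal at least 10% of the positive control, reached in at least 60% of replicates, without over 20% cell loss; inconclusive means no rule given, readout overlaps actives, possibly toxicity-flagged; inactive means the rest, including those meeting only one limit.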 Where a structure was tested more than once in an assay, its records may differ in their call.
# Molecular target: E-selectin (Homo sapiens) (UniProt P16581)
# Sequence of UniProt P16581 (P16581 whole entry, looked up): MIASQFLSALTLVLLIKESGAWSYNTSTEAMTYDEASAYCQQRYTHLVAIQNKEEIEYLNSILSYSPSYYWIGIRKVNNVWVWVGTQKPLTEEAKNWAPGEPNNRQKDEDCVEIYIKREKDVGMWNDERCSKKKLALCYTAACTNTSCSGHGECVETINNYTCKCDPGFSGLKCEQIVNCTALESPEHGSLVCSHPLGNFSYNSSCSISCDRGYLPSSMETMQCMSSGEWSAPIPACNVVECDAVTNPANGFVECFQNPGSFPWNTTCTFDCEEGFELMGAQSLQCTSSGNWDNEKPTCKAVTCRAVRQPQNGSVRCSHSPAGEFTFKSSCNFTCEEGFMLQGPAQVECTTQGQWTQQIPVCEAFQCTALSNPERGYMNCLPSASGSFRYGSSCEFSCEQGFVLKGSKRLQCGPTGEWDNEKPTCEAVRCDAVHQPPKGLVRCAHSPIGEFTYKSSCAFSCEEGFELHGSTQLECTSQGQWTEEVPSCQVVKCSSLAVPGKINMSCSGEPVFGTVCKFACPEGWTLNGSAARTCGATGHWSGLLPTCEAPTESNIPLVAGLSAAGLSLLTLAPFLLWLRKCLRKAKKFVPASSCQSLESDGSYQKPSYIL
# Experiment: inducers of endothelial E-selectin expression – imaging, HUVEC, immunofluorescence imaging, single point, primary screen (AID 686992);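 further: signal is the percent of cells scored E-selectin positive by PE staining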
# Details: at 7.58 µM, hits give high values, normalized: neutral wells 0, TNF-alpha wells 100
# Procedure, shortened: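 System: HUVEC / Compound: single concentration / Signal: immunofluorescence imaging / Read-out: percent E-selectin-positive cells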
row,Compound,activation
1,CC=Cc1ccc2n(c1=O)C[C@@H]1[C@@H](CO)[C@H](C(=O)NCC)N(CC3CCOCC3)[C@H]21 (mixture of isomers),inactive: -0.14%
2,C[C@H]1CCCCO[C@H](CN(C)S(=O)(=O)c2cn(C)cn2)[C@@H](C)CN([C@@H](C)CO)C(=O)c2cc(NC(=O)NC3CCCCC3)ccc2O1,inactive: 0.0905%
3,O=C(c1cccs1)N1CCCC(N2CCN(c3ccc(F)cc3)CC2)C1 (centres undefined),inconclusive: 32.8%
4,C[C@@H]1CN([C@H](C)CO)C(=O)c2cc(NS(=O)(=O)c3ccccc3)ccc2O[C@H]1CN(C)Cc1ccc2c(c1)OCO2,inconclusive: -0.0055%
5,Cc1cc(C(=O)Nc2ccc(CC(=O)O)cc2)c(C)o1,inconclusive: 32.2%
6,COCC(C)NC(=O)c1cc2cccc([N+](=O)[O-])c2[nH]1 (centres undefined),inconclusive: 60.4%
7,O=C(NCCCNC(=O)c1cnccn1)c1ccc(Cl)cc1,inactive: -0.0855%
8,COc1ccc(/C=C(\C#N)C(=O)OCCNC(=O)c2ccncc2)cc1,inconclusive: 64.7%
9,Cc1cccc(C(=O)Nc2ccc3c(c2)C(=O)NC3=O)c1,inconclusive: 98.2%
10,C[C@H](CO)N1C[C@H](C)[C@@H](CN(C)S(=O)(=O)c2ccccc2)Oc2ccc(NC(=O)Nc3ccc(C(F)(F)F)cc3)cc2C1=O,active: 431%
11,O=C(N/N=C/c1ccc([N+](=O)[O-])o1)c1ccncc1,inactive: -0.224%
12,O=C(C[C@@H]1CC[C@@H]2[C@H](COC[C@@H](O)CN2C(=O)c2cccnc2)O1)NCc1ccc(-c2ccccc2)cc1,inconclusive: 51.1%
13,COc1cccc(-c2cnc3c(c2)C(=O)N([C@@H](C)CO)C[C@@H](C)[C@H](CN(C)CC2CCCC2)O3)c1,inactive: 0.0765%
14,O=[N+]([O-])c1ccc(C=Nc2ccccc2)cc1,inactive: -0.194%
15,C[C@@H]1CN([C@@H](C)CO)C(=O)c2cc(NC(=O)NC3CCCCC3)ccc2O[C@@H]1CN(C)Cc1ccc2c(c1)OCO2,inconclusive: 117%
16,C[C@H]1CN([C@@H](C)CO)C(=O)c2c(c3ccccc3n2C)-c2ccccc2CO[C@H]1CN(C)Cc1ccccc1,inconclusive: 58.4%
17,CNC[C@H]1Oc2ccc(N(C)C)cc2CC(=O)N([C@H](C)CO)C[C@@H]1C,inactive: -0.078%
18,CCN(CC)CCNC(=O)Cn1nc(Cc2cccnc2)c2ccccc2c1=O,inactive: -0.491%
19,CC(=O)Nc1ccc(OCCOc2ccc(/C=C3\C(=N)N4N=C(C(C)C)SC4=NC3=O)cc2)cc1,inconclusive: 34.3%
20,Cc1ccccc1NC(=O)CSCCN1C(=O)c2ccccc2C1=O,inconclusive: 70%
21,C[C@@H]1CCCCO[C@H](CN(C)Cc2ccc(C(F)(F)F)cc2)[C@H](C)CN([C@@H](C)CO)C(=O)c2cc(NC(=O)CCC(F)(F)F)ccc2O1,inconclusive: 31%
22,C[C@@H]1CN([C@H](C)CO)C(=O)c2cc(NC(=O)c3ccncc3)ccc2O[C@@H]1CN(C)S(=O)(=O)c1ccc(F)cc1,inconclusive: 0.716%
23,O=C(O)c1cncc(C#CCC2CCCCC2)c1,inactive: -0.0715%
24,CC(C)NC(=O)N(C)C[C@H]1Oc2ccc(NC(=O)CCN3CCOCC3)cc2C(=O)N([C@H](C)CO)C[C@@H]1C,active: 43.2%
25,COc1ccc(CN(C)C[C@H]2Oc3ccc(N(C)C)cc3CC(=O)N([C@H](C)CO)C[C@H]2C)cc1,inconclusive: 165%

row,Compound,activation
1,CCOc1ccc(OCCSc2ccc(S(=O)(=O)N3CCN(C)CC3)cn2)cc1,inactive: -0.941%
2,Cc1ccc(S(=O)(=O)N(C)C)cc1NC(=O)CSc1nc2ncc(Cl)cc2[nH]1,inconclusive: 45.2%
3,C[C@@H]1CN([C@H](C)CO)C(=O)Cc2cc(NC(=O)NC3CCCCC3)ccc2O[C@H]1CN(C)S(C)(=O)=O,inconclusive: 26.2%
4,Cc1cc(NC(=O)CN(C)S(=O)(=O)c2ccc(-c3ccc(=O)[nH]n3)s2)ccc1Br,inconclusive: 47.6%
5,Cc1cc(NC(=O)c2ccccc2F)n(C(C)(C)C)n1,active: 33.8%
6,Cc1noc(C)c1NC(=O)N[C@@H]1CC[C@@H](CCNC(=O)C2CCCCC2)O[C@@H]1CO,inactive: 0.0485%
7,CCCC(NC(=O)CCl)c1ccccc1 (centres undefined),inconclusive: 27.8%
8,C[C@@H]1CN([C@@H](C)CO)C(=O)Cc2cc(NS(=O)(=O)c3ccc(F)cc3)ccc2O[C@H]1CN(C)S(=O)(=O)c1ccc(Cl)cc1,active: 33.9%
9,CN(C)c1ccc(/C=C/C(=O)c2ccc(O)cc2)cc1,inactive: 0.111%
10,C[C@H]1CN([C@@H](C)CO)C(=O)c2cc(NC(=O)Cn3cnnn3)ccc2O[C@@H]1CN(C)Cc1ccc(Oc2ccccc2)cc1,active: 47.9%
11,COc1cc(NC(=O)c2cc3c(CO)cnc(C)c3oc2=Nc2cccc(C(N)=O)c2)cc(OC)c1,inconclusive: 49.5%
12,C[C@@H]1CN([C@H](C)CO)S(=O)(=O)c2ccc(Br)cc2O[C@@H]1CN(C)Cc1ccncc1,inactive: 1.88%
13,CC1CCCC1/C(=N/O)c1ccccc1 (centres undefined),inconclusive: 27.1%
14,NS(=O)(=O)c1ccc(CCNC(=O)CN2CCN(c3cccc(Cl)c3)CC2)cc1,inactive: -2.83%
15,S=c1nc(-c2ccccc2Cl)[nH][nH]1,inconclusive: 40.9%
16,Cc1cc(Cl)ccc1OCCCC(=O)OCC(N)=O,inconclusive: 48.7%
17,COC(=O)C1=C(C)NC(C)=C(C(=O)OC)C1C(=O)OC(C)C(=O)c1ccccc1 (centres undefined),active: 77.3%
18,COc1cc2c(oc(=O)c3cc(C)cc(OC)c32)c2c(C3OC(C)C(O)C(C)(O)C3O)ccc(O)c12 (centres undefined),inactive: -0.415%
19,CCC(=O)c1ccc(OCC(O)CN2C(=O)NC(C)(C)C2=O)cc1 (centres undefined),inconclusive: 41.3%
20,CN(C)C(=O)c1ccc(-c2ccc3c(c2)[C@H]2[C@H](CCN2C(=O)c2ccccc2F)[C@H](CO)N3)cc1,inconclusive: 50.7%
21,O=C(NN1C(=O)CSC1=S)C(=O)NN1C(=O)CSC1=S,inactive: 2.09%
22,O=C1/C(=C\c2c(NCCOCCO)nc3ccccn3c2=O)SC(=S)N1Cc1ccco1,active: 72.7%
23,CC[N+](C)(CC)CCOC(=O)C1c2ccccc2Oc2ccccc21,inconclusive: 110%
24,C[C@@H]1CN([C@H](C)CO)C(=O)c2cc(NS(=O)(=O)c3ccc(Cl)cc3)ccc2O[C@@H](C)CCCCO[C@@H]1CN(C)C(=O)CCCN(C)C,inactive: -0.343%
25,O=C(CCC(=O)OCc1ccc(C(=O)Oc2ccc(Cl)cc2)cc1)Nc1ccccc1,inactive: -0.161%

row,Compound,activation
1,Cc1cc(C(=O)Nc2ccc3c(c2)C(=O)N(C)[C@H]2CC[C@H](CC(=O)N[C@@H](C)c4ccccc4)O[C@H]2CO3)no1,inactive: 0.0195%
2,C[C@@H]1CN([C@@H](C)CO)C(=O)c2cc(-c3ccncc3)cnc2O[C@@H]1CN(C)S(=O)(=O)c1ccc(F)cc1,inconclusive: 49.4%
3,COc1ccc(CNC(=O)C[C@@H]2CC[C@@H]3[C@@H](COc4ccc(NC(=O)C5CC5)cc4C(=O)N3C)O2)cc1,inactive: 0.0075%
4,CC(C)NC(=O)Nc1ccc2c(c1)CC(=O)N([C@@H](C)CO)C[C@H](C)[C@@H](CN(C)Cc1ccc(Oc3ccccc3)cc1)O2,inconclusive: 33.1%
5,Cc1ccccc1NC(=O)CC(=O)c1ccccc1,inconclusive: 51.4%
6,COc1ccc(NC(=O)N(C)C[C@H]2Oc3ccc(NC(=O)Cc4cn(C)c5ccccc45)cc3CC(=O)N([C@@H](C)CO)C[C@H]2C)cc1,inconclusive: 34.3%
7,COc1ccc(N2C(=O)C(C)(C)C2c2c(O)ccc3ccccc23)cc1 (centres undefined),inconclusive: 37.9%
8,O=C1CC(c2ccc(O)cc2)Oc2cc(O)cc(O)c21 (centres undefined),inconclusive: 58.5%
9,C[C@@H]1CCCCO[C@H](CN(C)Cc2ccc3c(c2)OCO3)[C@H](C)CN([C@H](C)CO)C(=O)c2cc(NC(=O)Nc3cccc4ccccc34)ccc2O1,inactive: 0.245%
10,O=C(CN1CCc2ccccc2C1)Nc1ccc(F)cc1F,inactive: 0.498%
11,O=[N+]([O-])c1cc(S(=O)(=O)O)cc([N+](=O)[O-])c1NN(c1ccccc1)c1ccccc1,active: 55.8%
12,Cc1cc(C(=O)N/N=C/C=C/c2ccc([N+](=O)[O-])cc2)n[nH]1,active: 53.9%
13,Nc1cc(=O)[nH]c(N)n1,inconclusive: 63%
14,Cc1ccc(-n2c(-c3cccs3)nc3nc4ccccc4nc32)cc1,inactive: 4.81%
15,C[C@H](CO)N1C[C@H](C)[C@@H](CN(C)Cc2ccc(Cl)c(Cl)c2)Oc2c(NC(=O)CCCCCC(=O)Nc3ccccc3N)cccc2C1=O,active: 324%
16,CCN(CC)CCCNC(=O)c1cc2c(=O)[nH]c3ccc(C)cc3c2s1,inconclusive: 35.8%
17,O=C(COC(=O)c1ccc(S(=O)(=O)N2CCCC2)cc1)Nc1cccc(Cl)c1,inconclusive: 101%
18,C[C@@H]1CN([C@@H](C)CO)C(=O)c2cc(N(C)C)ccc2O[C@H]1CN(C)Cc1ccc(Oc2ccccc2)cc1,inactive: 0.065%
19,CN1C(=O)C(CC(=O)NCCc2ccccc2)N(NC(=O)c2cccc(F)c2)C1=S (centres undefined),inconclusive: 31.3%
20,O=c1ccc2[n+]([O-])c3ccc(O)cc3oc-2c1,active: 193%
21,COc1cccc(C2C(=O)c3ccccc3C2=O)c1,active: 65.5%
22,OCc1c[nH]c2ccccc12,inconclusive: 57.2%
23,CC(=O)NCCNC(=O)CNC(=O)c1ccc(Cl)cc1,inactive: -0.399%
24,CCCCOCC1CN(CCCC)S(=O)(=O)c2c(Oc3ccc(C(C)C)cc3)cccc2O1 (centres undefined),inconclusive: 90.8%
